# Test results reported in the RNAGym collection of RNA variant scans (doi:10.7554/elife.90254).
# Read counts are not given, so values of variants with three or more changes are uncertain.
# B1: LINE1-mini (parent)
# chain: GGCAGAGCUCAACACAGCGUGGCAAAGUGGCUGUGGCUAGACUGCC
# Variants of: B1
# Assay: self-cleavage, relative activity (ratio to wild type); higher = more cleavage; in vitro, sequencing; the parent is a self-cleaving ribozyme
row,Variant,self-cleavage
1,A16U C31U U43A,0.01
2,A6U G29A U32G U38C,0.09
3,G7C A11G A16C C45G,0.03
4,A4G G17A U43G C45A,0.03
5,C3A G5C G36A,0.2
6,C3A A16C C18G,0.04
7,C3A A4C C45A,0.11
8,G2A C8G C18U C23G A24G G36A A41U,0.01
9,A24G G40C C46U,0.11
10,A6G G29A C37U,0
11,G7U C23A G29U G33U,0
12,C18U U28A C45G,0.11
13,C8A C13A C23U G27C G44U,0.34
14,A11C A39C U43C,0
15,C18U G29U C31U G33C G35A A41U,0.02
16,G5A C8A G40A,0.58
17,A6U A11C C13G G19C G40A A41U,0
18,G1U G5U C8A C23U G27C U34G G44C,0.06
19,C8A G22C A39U,0.03
20,G19C G30C U32C G33C,0.03
21,A16U G17A G22A G29A,0.01
22,G19C A24C G40C C45A,0.02
23,G2U C3U C10G C15A,0
24,A4G A12G G17U G21A,0.06

row,Variant,self-cleavage
1,A11U A41C U43C,0
2,C10A C13G G30A,0
3,A4C A11G A26U G35C,0.02
4,A39U A41U G44A,0.18
5,C3G G5C C23G U28G,0.06
6,G2U C3U A4G U9C C15U U28C C31A A41C,0.01
7,C10A A26C C37U,0.02
8,G5A G19A A25U A39U,0.11
9,A16G G27A U32C U43G,0.09
10,U20A G21U G44A,0.43
11,A11C U20A G33U C42A G44U C46U,0.01
12,A4U G21U G30C,0.12
13,A12G G22C C46G,0.07
14,G2U A11G A14C G36U,0
15,G1C G2C C8G A14U G22U G30C,0.04
16,G17A G27U C31G G44C,0.03
17,A26U G27U G40C,0.15
18,C8G G17C G44U,0.04
19,C15U G29U A39C G40A,0.2
20,G5U A16C C37A,0.04
21,G2U C13A U20G A41U,0.01
22,G1C C3A U34A C37A,0.07
23,A25U A26C A39G,0.06
24,G27C G33A C46U,0.07

row,Variant,self-cleavage
1,C3U G17A A25C G27C,0.06
2,G2C A16C A39U,0.03
3,C10G A24C U28G C46U,0.02
4,G5U G27U U28C,0.02
5,U9C G21U G33A,0.03
6,G2U A14U U20A G30U C42A,0.04
7,G17C C23U G30A C31A,1.58
8,G2A C3U G5C U9A G30U,0.11
9,G27U A39C C42U,0.07
10,A11U A16G C18A U20G U28G G36C,0.01
11,C3G C15G G22U G30U C31U C45A C46U,0.04
12,A14G A26C G30U G35U,0.09
13,C10U G35C U43C C46U,0.03
14,G1A G2U A6U C13U A24G G40U,0.05
15,C18U G19U A24U C42U,0.11
16,G1C A4C C45U,0.01
17,G7A U9A A41U,0.13
18,U28A C45G C46A,0.9
19,A12C U28A G36U U38C C45A,0
20,G7C C15G C23U A24G C37U,0.02
21,A12U U38G G44C,0
22,C8U G17C C42A C45A,0.06
23,A6U C8A G36A,0.51
24,C3A G19U G22C A26U,0.16

row,Variant,self-cleavage
1,C3G A4C A16U G29C,0.09
2,C8G G22U G29C A39C,0.01
3,A16C G17A U28A C45G,0.02
4,C18A C37A C42G,0.01
5,G17U C23A C42U U43A C46A,0.08
6,G2C A4U G7U C8U A26C U34A,0.59
7,G5A G22C C37G C46G,0.02
8,C13G G30C G33A A39C,0.11
9,G7C U20A A25G G29C,0.02
10,C8A G17C G19A G27C C45U,0.06
11,A14U A16C C46U,0.04
12,C10A G22A G33U C45A,0.02
13,A11U C15U G35C C42U,0.02
14,A4G G7A C10G A39C,0.01
15,A4U G21A C46U,0.14
16,A4U C23U C37U,0.03
17,G7C G29A G35C G36U A39U,0.08
18,G2A C15A G40U,0.05
19,A4U C10A C18A G22C C23G G27U G33A C45G,0.01
20,G5A G21U A25U G30U,0.05
21,C13G A16U C37A U38A G44A,0.05
22,A12C C18G C23G G30U,0
23,A4C G21A C23U,0.24
24,G7U U9C U32C G40A,0.01

row,Variant,self-cleavage
1,C15A G27C G29A,0.06
2,G1A G2C C37A G44C,0.07
3,C10G A14C U20A,0.02
4,C10A A16G G30U C31A,0.04
5,C18G A24C U28A U32C,0.04
6,C13G G35A C37A A39C,0.07
7,C8A C13A G22A U32G,0.25
8,C3G G5U C10A G21U A25C U43G G44A,0
9,A16C G21U A25G,0.01
10,G19A A24U G36C,0.07
11,C3A A24C A25U G33C,0.1
12,G1A A6C U28C,0.28
13,A4G A12U A26G,0.03
14,C10G A16G G19A A25G,0.05
15,C10U U20G C23A G33C,0.02
16,A12G C23A G27U U38C G40C,0.01
17,A11C C15G C37U,0.01
18,U28C G30A U32A G40C,0.16
19,A6U C8U C23G G30U A41G C45A,0.73
20,C3G A24G G29A U34A C37U U38A,0.12
21,G17U U20C G44A C46U,0.02
22,G2C G30A U43A G44C,0.11
23,G5C G22C C45A,0.01
24,C10A A25U G30U U32A,0.04

row,Variant,self-cleavage
1,G17U G21A A26G G33C,0.06
2,C8U C10U A41C,0.1
3,G2A A24C A26C,0.3
4,A4G A6C U32A A39G G44A,0.13
5,C10G C18G A25U G33U U34A U43A,0.01
6,G1U A6U A25C,0.13
7,G2C C23A C46G,1.3
8,C13A G21A G33A,0.1
9,C37A G40A C45A,0.04
10,G2C C13G A24U G29A U32G C37A,0.02
11,G1A A6C G35A G36C,0.05
12,A12G C23U C31A,0.02
13,G5A G7C A11G A12G G27A C31A G36C C46U,0
14,A11G A14U G30U,0.01
15,G5A C8G C15G G27U G33U C42G,0.07
16,C3A U9G C13G G40U G44U,0.12
17,G5U C18U G36U G40C,0.02
18,C18G G27A G36C A41C,0.03
19,A12C G22U C42A U43C,0.01
20,C3A G7C U9A G21U C42U,0.1
21,C3A A4G C13A,0.25
22,G33U G36A A41C,0.07
23,C18U G19U C45A,2.24
24,G17U U20G A26G U34C A41C C46A,0.01

row,Variant,self-cleavage
1,C15U G22C G35A G44A,0.05
2,G22A G35C G36C,0.14
3,G19C U43G C45U,0.03
4,C10A A14U C15A U20C G40U C42U C46A,0.04
5,G7U C10A G21A,0.03
6,C3A G17A G19U C45A C46G,0.13
7,A11G A12C G30A,0
8,G1U C8A A25U,0.06
9,G27C A41U U43C,0.06
10,G5C G27C U34A G40C,0.03
11,C8G C13G G36U,0.03
12,A14U C18U G21A,0.34
13,G1C A14U U20A C23U,0.03
14,C10G C31G A41U,0.03
15,C13U C15U A16C C31G,0.13
16,G5A C10A A25C G30U G35C,0.03
17,G1U C13U A41U G44C,0.14
18,G5U C18U A24G G30A G33C C46G,0
19,A6C G17C G22C,0.17
20,C3A C18U C37A,0.93
21,A4G C42U U43G,0.04
22,A6C G21A C31A U34C A39G,0.13
23,G22A G35U G36A A39G,0.52
